Results published in paper PMC4336329 (PLoS ONE, 2015).
The campaign covered roughly 310,000 compounds. About 2,200 (0.71%) showed an effect of 50% or more. Effects have a minus sign here. The list shows a part of the results.

Target: human ether-à-go-go-related gene (hERG) potassium channel (human, UniProt Q12809)
Experiment: primary screen, population patch clamp on CHO cells stably expressing hERG

Chain of human ether-à-go-go-related gene (hERG) potassium channel (Q12809 whole entry, looked up): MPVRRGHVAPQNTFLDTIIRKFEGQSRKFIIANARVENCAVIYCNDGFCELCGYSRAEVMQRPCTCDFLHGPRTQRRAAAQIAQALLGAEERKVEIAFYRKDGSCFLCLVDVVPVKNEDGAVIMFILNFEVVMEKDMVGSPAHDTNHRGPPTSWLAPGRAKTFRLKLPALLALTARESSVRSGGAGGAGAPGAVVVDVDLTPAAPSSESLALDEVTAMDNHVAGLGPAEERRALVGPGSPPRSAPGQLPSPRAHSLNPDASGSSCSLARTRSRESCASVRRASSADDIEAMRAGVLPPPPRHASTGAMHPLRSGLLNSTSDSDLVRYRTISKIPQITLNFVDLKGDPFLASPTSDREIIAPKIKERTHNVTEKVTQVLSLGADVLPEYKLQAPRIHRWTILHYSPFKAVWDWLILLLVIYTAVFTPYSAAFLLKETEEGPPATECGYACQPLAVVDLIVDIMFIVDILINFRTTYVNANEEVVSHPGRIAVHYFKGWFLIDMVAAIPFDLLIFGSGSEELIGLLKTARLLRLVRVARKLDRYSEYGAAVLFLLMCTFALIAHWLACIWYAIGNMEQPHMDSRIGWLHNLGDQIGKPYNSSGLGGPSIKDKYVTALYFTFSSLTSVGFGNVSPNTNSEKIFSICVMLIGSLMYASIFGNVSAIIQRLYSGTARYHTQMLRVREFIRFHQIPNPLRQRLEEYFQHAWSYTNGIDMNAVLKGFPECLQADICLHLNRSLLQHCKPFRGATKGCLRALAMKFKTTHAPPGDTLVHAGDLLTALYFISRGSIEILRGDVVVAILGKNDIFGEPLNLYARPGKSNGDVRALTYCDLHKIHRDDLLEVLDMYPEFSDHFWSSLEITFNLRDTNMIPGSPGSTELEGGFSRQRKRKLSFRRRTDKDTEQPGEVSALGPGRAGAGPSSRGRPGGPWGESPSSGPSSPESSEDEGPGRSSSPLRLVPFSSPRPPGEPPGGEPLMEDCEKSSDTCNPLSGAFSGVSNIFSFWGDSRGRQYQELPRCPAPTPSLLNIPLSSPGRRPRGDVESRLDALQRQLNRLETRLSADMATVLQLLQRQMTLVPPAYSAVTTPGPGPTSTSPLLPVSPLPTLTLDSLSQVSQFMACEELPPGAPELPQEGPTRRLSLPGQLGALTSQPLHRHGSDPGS

SMILES	hERG current change (%, negative = inhibition) at 1uM [%]
CC(=O)Nc1ccc(S(=O)(=O)Nc2nc3ccc(C)cc3s2)cc1	8.08
CCc1nc2nc(C)c(NS(=O)(=O)c3ccc4c(c3)CCCC4)c(=O)n2[nH]1	13.1
Cc1ccc2nc(-c3ccccn3)cc(C(=O)NCCc3ccc(F)cc3)c2c1	4.59
Cc1nc2c(C)cccn2c(=O)c1NC(=O)c1ccc2c(c1)OCO2	11.6
Cc1ccc(S(=O)(=O)N(C)C)cc1NC(=O)CSc1ccc2c(c1)OCCO2	6.68
COCCNC(=O)c1ccc(-n2c(SCc3cccnc3)nc3ccccc3c2=O)cc1	-2.41
O=C(Nc1cccc(F)c1)NC1(C(=O)N2CCN3CCCC3C2)CCCCC1 (centres unmarked)	9.03
CCOc1ccc(OCCC(=O)N2CCN(S(=O)(=O)c3ccc(F)cc3)CC2)cc1	-3.33
O=C(C[n+]1cccc(NC(=O)c2ccccc2)c1)c1ccc(NC(=O)c2ccccc2)cc1.[Br-]	4.65
CCCC(NC(=O)c1c(C)noc1C)C12CC3CC(CC(C3)C1)C2 (centres unmarked)	-0.331
COc1ccc(/C=C2\CN(Cc3ccccc3)C/C(=C\c3ccc(OC)cc3OC)C2=O)c(OC)c1	18.2
Nc1cc(N)nc(SCc2cc([N+](=O)[O-])cc3c2OCOC3)n1	-3.37
CC(=O)c1cccc(NC(=O)NC2CC3CCCC(C2)N3CC(C)C)c1 (centres unmarked)	-1.26
CC(=O)Nc1ccc(S(=O)(=O)N2CCN(C(=O)CCC3CCCC3)CC2)cc1	9.49
CCCCCC(=O)NC(=S)NNC(=O)c1ccc([N+](=O)[O-])cc1	19.4
O=C(Nc1nnc(SCc2ccc(Cl)cc2)s1)C1CCCO1 (centres unmarked)	7.43
C(=N\n1cnnc1)/c1ccc(OCc2cccc3ccccc23)cc1	-0.106
CCOC(=O)c1c(C)oc2cc(Br)c(OC(C)C(=O)OCC)cc12 (centres unmarked)	-1.76
COc1cc(C(=O)Nc2ccc(C)cn2)c([N+](=O)[O-])cc1OC	10.2

SMILES	hERG current change (%, negative = inhibition) at 1uM [%]
C=C(C)CN=C1NN=C(c2cc(C)n(-c3ccc(C)cc3)c2C)CS1	9.93
O=C(N/N=C/c1ccccc1O)c1ccncc1	11
CN(C(=O)CSc1nnc(-c2ccncc2)n1Cc1ccccc1)C1CCS(=O)(=O)C1 (centres unmarked)	9.18
Cc1ccc(N(CC#N)C(=O)CS(=O)(=O)c2cccc([N+](=O)[O-])c2)cc1	4.93
C/C(=C/C(=O)Nc1cccc(F)c1)N1CCCC1	18.3
Cc1cccc(CS(=O)(=O)c2ncc(CO)n2C)c1	10.5
O=C(CSc1ccccn1)Nc1ccc2c(c1)C(=O)c1ccccc1C2=O	14.2
Cc1noc(C)c1C(=O)Nc1sc2c(c1C(N)=O)CCC2	3.09
CC(C)(C)c1nn(-c2ccccc2)c2[nH]c(=O)c(CNc3ccc4c(c3)OCCO4)cc12	11
COc1ccc(-c2coc3cc(O)ccc3c2=O)cc1O	5.96
Cc1ccc(NC(=O)CCC(=O)NNS(=O)(=O)c2ccccc2)cc1C	-7.84
CCNC(=S)NNc1nnc(-c2ccccc2)c(-c2ccccc2)n1	10.4
Cn1c(SCc2ccc(C#N)cc2Cl)nc2ccccc21	-0.0907
O=C(COC(=O)c1ccc([N+](=O)[O-])cc1Cl)Nc1cccnc1Cl	14.5
CCCCCN1C(=O)/C(=C/c2c(N3CCc4ccccc4C3)nc3ccccn3c2=O)SC1=S	11.4
CC(=O)c1ccc(NC(=O)COc2ccccc2C(=O)Nc2ccc(C)cn2)cc1	11.8
CS(=O)(=O)N1CCN(c2c(Cl)cccc2[N+](=O)[O-])CC1	1.46
Nc1ccc2oc(-c3ccccc3Cl)nc2c1	-2.3
COc1ccc(NC(=S)Nc2cc(C)cc(C)n2)cc1OC	9.28

SMILES	hERG current change (%, negative = inhibition) at 1uM [%]
CCOC(=O)N1CCN(C(=O)C2CCN(S(=O)(=O)c3ccc(Br)s3)CC2)CC1	-8.34
Cc1ccc(N2CC(NS(=O)(=O)c3cccnc3)CC2=O)cc1C (centres unmarked)	21.3
Cc1cccn2c(=O)c3cc(C(=O)NCCCN4CCCC4=O)n(C)c3nc12	10.4
O=C1OC(Nc2ncccn2)c2ccccc21 (centres unmarked)	14.8
CN1CCSc2ccc(C(=O)Nc3cc(F)ccc3F)cc21	18.8
CN(CC(=O)Nc1ccc(F)cc1)C(=O)C1CC(=O)N(Cc2ccccc2)C1 (centres unmarked)	3.76
CSc1ccc(S(=O)(=O)N2CCC(C(=O)NCCc3ccccc3)CC2)cc1	14.1
Cc1nnc(NC(=O)CSc2ccc3nnc(-c4cccnc4)n3n2)s1	4.43
CC(C)c1ccc(NC(=O)C2C3C=CC(CC3)C2C(=O)O)cc1 (centres unmarked)	-12.2
COc1ccc(NC2CCCN(C(=O)c3ccncc3)C2)cc1 (centres unmarked)	22.5
O=c1[nH]cc(N=Cc2cc([N+](=O)[O-])ccc2O)c(=O)[nH]1	15.8
CCc1c(C)nc(N)n2c(SCC(=O)NC3CCCCC3)nnc12	2.11
CC(C)(C)SCCNC(=O)c1ccccc1	0.759
CCc1ccc(NC(=O)C(C)OC(=O)CCC(=O)c2cccs2)cc1 (centres unmarked)	-3
Nc1nc(SCC(=O)N2CCOCC2)[nH]c(=O)c1-c1ccccc1	16.1
CCn1cc(CN2CCc3c([nH]c4ccccc34)C2c2cccc(O)c2)c(C)n1 (centres unmarked)	6.25
CC(=O)c1cccc(NC(=O)c2c(F)c(F)c(F)c(F)c2F)c1	-0.51
COC(=O)c1ccccc1NC(=O)Cn1cc2c(n1)CCC(C)C2 (centres unmarked)	7.05
